Among the data in publication PMC6602471 are binding signal (log fluorescence intensity) values, retold here.

The list shows a part of the results. At the low end of the ranking, values are background and their order means little.

The target of this test is T1, ELK1 (UniProt P19419).
T1 sequence: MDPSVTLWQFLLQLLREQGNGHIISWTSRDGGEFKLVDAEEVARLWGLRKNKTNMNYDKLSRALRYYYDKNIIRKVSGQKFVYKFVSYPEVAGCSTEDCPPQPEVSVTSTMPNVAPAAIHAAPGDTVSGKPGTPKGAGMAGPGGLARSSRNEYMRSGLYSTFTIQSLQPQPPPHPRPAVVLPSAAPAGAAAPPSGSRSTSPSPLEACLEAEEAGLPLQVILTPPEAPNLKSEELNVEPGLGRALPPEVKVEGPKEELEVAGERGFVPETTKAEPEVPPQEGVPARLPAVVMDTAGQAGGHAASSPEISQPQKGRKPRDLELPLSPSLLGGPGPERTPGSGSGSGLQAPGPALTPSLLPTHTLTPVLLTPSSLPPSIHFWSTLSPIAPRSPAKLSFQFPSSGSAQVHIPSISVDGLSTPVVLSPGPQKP
In words: custom PBM. The following applies: custom protein-binding microarray; buffer, salt, pH and temperature not stated; high values mean tight binding; double strand, one strand shown.
Regarding “GTGTATAGGATGCCATCCAACACACGTGTTAAAATGGTCTTGATTCGCTTGACGCTGCTG”, the binding signal (log fluorescence intensity) turned out to be 8.94.

Turning to “CACAATTTTTACAGTAATTTAGCACGCGTAACTCCTGTCTTGATTCGCTTGACGCTGCTG”, the binding signal (log fluorescence intensity) came out at 8.93.

As to “GGAAAAAGGCCCAGGGTAACACGGGAAGTGGGCTTAGTCTTGATTCGCTTGACGCTGCTG”, the binding signal (log fluorescence intensity) was found to be 9.06.

Consider “GATTAATTTCTACCCTTATTCGCACGTGCCATAACAGTCTTGATTCGCTTGACGCTGCTG”, for which the binding signal (log fluorescence intensity) was 8.75.

Turning to “GGAAAAAGGCCCAGGGTAACACCGGAAGTGGGCGTAGTCTTGATTCGCTTGACGCTGCTG”, the binding signal (log fluorescence intensity) amounted to 10.9.

Regarding “GTGTATAGGATCCCATACAACACACGTGTTAAAATGGTCTTGATTCGCTTGACGCTGCTG”, the binding signal (log fluorescence intensity) worked out at 8.93.

On to “GAAAGGGAAGACGGTTGTGGTAGTTCCGGGTATTAAGTCTTGATTCGCTTGACGCTGCTG”, for which the binding signal (log fluorescence intensity) stood at 11.3.

For “TCTGCTGCGGTGCATACCCCACCGGATGTGACCCCGGTCTTGATTCGCTTGACGCTGCTG”, the binding signal (log fluorescence intensity) turned out to be 10.1.

For “CAGCATAGGACTTCTTCCCTGAAGCAATTGAGAACCGTCTTGATTCGCTTGACGCTGCTG”, the binding signal (log fluorescence intensity) amounted to 8.77.

For “CAGCATAGGACTTCTTCCCAGAAGCAATTGATAACCGTCTTGATTCGCTTGACGCTGCTG”, the binding signal (log fluorescence intensity) was 8.89.

Turning to “CTGGGACTTGAGCCAACTCTGCCACGTGGGTCGTTTGTCTTGATTCGCTTGACGCTGCTG”, the binding signal (log fluorescence intensity) worked out at 8.81.

“GTATATAGGATCCCATCCAACACACGTGTTAAAATGGTCTTGATTCGCTTGACGCTGCTG”: the binding signal (log fluorescence intensity) amounted to 8.75.

Regarding “GATTAATTTGTGCCCTTATTCGCACGTGCCATAACAGTCTTGATTCGCTTGACGCTGCTG”, the binding signal (log fluorescence intensity) turned out to be 8.61.

In the case of “CTGGGAGTTGACCCAACTCTGCCACGTGGGTCGTTTGTCTTGATTCGCTTGACGCTGCTG”, the binding signal (log fluorescence intensity) came out at 8.86.

With “TCCGGCTACCAGCTCCACCCACTTCAGGGCTTGTAGGTCTTGATTCGCTTGACGCTGCTG”, the binding signal (log fluorescence intensity) is 8.92.

Take “GTGTATAGGATCCCATCCAACACACGTGTTAAAATGGTCTTGATTCGCTTGACGCTGCTG”: the binding signal (log fluorescence intensity) came out at 8.85.

Take “GGAAAAAGGCCCAGCGTAACACCGGAAGTGGGCTTAGTCTTGATTCGCTTGACGCTGCTG”: the binding signal (log fluorescence intensity) stood at 10.8.

Regarding “CACAATTTTTACAGTAATGTAGCACGCGTTACTCCTGTCTTGATTCGCTTGACGCTGCTG”, the binding signal (log fluorescence intensity) was 9.11.

Regarding “GGAAAAAGGCCCAGGGTAACACCGGAAGTGGGCATAGTCTTGATTCGCTTGACGCTGCTG”, the binding signal (log fluorescence intensity) turned out to be 10.9.

In the case of “CTGGGACTAGACCCAACTCTGCCACGTGGGTCGTTTGTCTTGATTCGCTTGACGCTGCTG”, the binding signal (log fluorescence intensity) came out at 8.74.

Consider “GTGTATAGGATCCCATCCAACACACGTGTTACAATGGTCTTGATTCGCTTGACGCTGCTG”, for which the binding signal (log fluorescence intensity) was 9.02.

As to “GGAGAAAGGCCCAGGGTAACACCGGAAGTGGGCTTAGTCTTGATTCGCTTGACGCTGCTG”, the binding signal (log fluorescence intensity) was 10.9.

Turning to “GCTGCTGCGGTGCATACCCCATCGGATGTGACCCCGGTCTTGATTCGCTTGACGCTGCTG”, the binding signal (log fluorescence intensity) was found to be 9.05.

With “TACTGACTTATTTATGCGAATGCACATGAATAGACCGTCTTGATTCGCTTGACGCTGCTG”, the binding signal (log fluorescence intensity) came out at 8.87.

As to “CAGCATAGGACTTCTTCCCTGAAGCAATTGATCACCGTCTTGATTCGCTTGACGCTGCTG”, the binding signal (log fluorescence intensity) came out at 8.95.

Consider “CTGGGACTTGACCCAACTCTGCCACGTGGGTCGTATGTCTTGATTCGCTTGACGCTGCTG”, for which the binding signal (log fluorescence intensity) came to 8.98.

For the sequence “TGTCGGGTAAGGGAATGTAGATCACGTGAATGTAAAGTCTTGATTCGCTTGACGCTGCTG”, the binding signal (log fluorescence intensity) was found to be 8.95.

In the case of “TGTAGGGTAAGGGAATGTAGATCACGTGAATGAAAAGTCTTGATTCGCTTGACGCTGCTG”, the binding signal (log fluorescence intensity) came to 8.82.

For “GTGTATAGGATCCCATCCAACACACATGTTAAAATGGTCTTGATTCGCTTGACGCTGCTG”, the binding signal (log fluorescence intensity) was found to be 8.76.

For “GATTAATTTCTGCCCGTATTCGCACGTGCCATAACAGTCTTGATTCGCTTGACGCTGCTG”, the binding signal (log fluorescence intensity) was determined as 9.07.

Take “GGAAAAAGGCCCAGGGTAACACCGGAAGTGGGCTCAGTCTTGATTCGCTTGACGCTGCTG”: the binding signal (log fluorescence intensity) turned out to be 10.9.

For the sequence “GATTAATTCCTGCCCTTATTCGCACGTGCCATAACAGTCTTGATTCGCTTGACGCTGCTG”, the binding signal (log fluorescence intensity) was 11.1.

Turning to “TAAAGGGAAGACGGTTCTGGTAGTTCCGGGTATTAAGTCTTGATTCGCTTGACGCTGCTG”, the binding signal (log fluorescence intensity) amounted to 11.3.

As for “CAGCATAGGACTTCTTCCCTGAAGCAATTGATAACTGTCTTGATTCGCTTGACGCTGCTG”, the binding signal (log fluorescence intensity) came to 8.96.

Take “TACTGACTTATATATGCGAATGCGCATGAATAGACCGTCTTGATTCGCTTGACGCTGCTG”: the binding signal (log fluorescence intensity) was determined as 8.86.

Take “TCCTGCTACCAGCTCCACCCACTTCAGGCCTTGTAGGTCTTGATTCGCTTGACGCTGCTG”: the binding signal (log fluorescence intensity) worked out at 8.89.

With “TAAAGGGAAGACGGCTGTGGTAGTTCCGGGTATTAAGTCTTGATTCGCTTGACGCTGCTG”, the binding signal (log fluorescence intensity) came out at 11.2.

For the sequence “GCTGCTGCGGTGCATACCCAACCGGATGTGACCCCGGTCTTGATTCGCTTGACGCTGCTG”, the binding signal (log fluorescence intensity) is 10.4.

For the sequence “TCCGGCTACCAGCTCCAGCCACTTCAGGCCTTGTAGGTCTTGATTCGCTTGACGCTGCTG”, the binding signal (log fluorescence intensity) came out at 8.75.

Consider “GTGTATAGGATCCCATCCAACACACCTGTTAAAATGGTCTTGATTCGCTTGACGCTGCTG”, for which the binding signal (log fluorescence intensity) was determined as 8.91.

With “TACTGACTTATATATGCGGATGCACATGAATAGACCGTCTTGATTCGCTTGACGCTGCTG”, the binding signal (log fluorescence intensity) was determined as 9.12.
